The other results are listed elsewhere or left out. Repeats are few or missing, and single values can be far off.

Among the test systems are MZ2-MEL; MeWo; RPMI7951; RVH-421; SkMel28; SkMel2; SkMel30; SkMel5; UACC257; UACC62.
Holding throughout (assay): cell count relative to DMSO control; melanoma cells; higher = more viable cells
Common to all, as to details: library dose: low library concentration; 72 h
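Further: cell number obtained by counting DAPI-stained nuclei in high-throughput microscope images with image analysis software, screen run in 1,536-well plates.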

For `N#CC[C@H](C1CCCC1)n1cc(-c2ncnc3[nH]ccc23)cn1` [ruxolitinib] + Oc1nc(-c2ccc(C(F)(F)F)cc2)nc2c1CSCC2 [XAV939] (first compound 1 µM, partner dose 2 µM), the cell count with MZ2-MEL turned out to be 99.4%; in the assay on MeWo, 111%; in the assay on RPMI7951, 92.5%; with RVH-421, 114%; in the assay on SkMel28, 112%; in the assay with SkMel2, 104%. Besides, the cell count worked out at 111% in the assay on SkMel30, 84.7% in the assay with SkMel5 and 82.4% in the assay with UACC257.
As for `N#CC[C@H](C1CCCC1)n1cc(-c2ncnc3[nH]ccc23)cn1` [ruxolitinib] + CNC(=O)c1cc(Oc2ccc(NC(=O)Nc3ccc(Cl)c(C(F)(F)F)c3)cc2)ccn1 [sorafenib] (first compound 1 µM, partner dose 0.4 µM), the cell count with MZ2-MEL was 106%; in the assay on MeWo, 97%; in the assay on RPMI7951, 98.7%; in the assay with RVH-421, 133%; in the assay with SkMel28, 105%; with SkMel2, 107%. For the same compound, the cell count with SkMel30 was found to be 112%.
Regarding `N#CC[C@H](C1CCCC1)n1cc(-c2ncnc3[nH]ccc23)cn1` [ruxolitinib] + CN(NC(=O)CC(=O)NN(C)C(=S)c1ccccc1)C(=S)c1ccccc1 [STA4783] (first compound 1 µM, partner dose 0.006 µM), the cell count with MZ2-MEL amounted to 104%; in the assay with MeWo it was 91.2%; in the assay on RPMI7951 it was 114%; with RVH-421, 62.9%; in the assay with SkMel28, 105%; with SkMel2, 96.9%. For the same compound, the cell count with SkMel30 was 96.1%; in the assay on SkMel5, 99.2%; with UACC257 it was 85%; in the assay with UACC62, 123%.
Consider `CC[C@]1(O)C[C@H]2CN(CCc3c([nH]c4ccccc34)[C@@](C(=O)OC)(c3cc4c(cc3OC)N(C=O)[C@H]3[C@@](O)(C(=O)OC)[C@H](OC(C)=O)[C@]5(CC)C=CCN6CC[C@]43[C@@H]65)C2)C1` [vincristine] + Oc1cc(-c2nc(-c3ccccc3)[nH]c2-c2ccncc2)ccc1Cl [L779450] (first compound 0.0001 µM, partner dose 0.2 µM), for which the cell count with MZ2-MEL came out at 77.2%; in the assay with MeWo, 94.5%; in the assay on RPMI7951 it was 71.8%; with RVH-421 it was 74.1%; with SkMel28 it was 65.2%; in the assay with SkMel2, 89.5%. Besides, the cell count was 80.6% in the assay with SkMel30, 92.3% with SkMel5, 41.6% in the assay on UACC257 and 50.4% in the assay on UACC62.
With `N#CC[C@H](C1CCCC1)n1cc(-c2ncnc3[nH]ccc23)cn1` [ruxolitinib] + NCC(=O)Nc1ccc(-n2nc(C(F)(F)F)cc2-c2ccc3c(ccc4ccccc43)c2)cc1 [OSU03012] (first compound 1 µM, partner dose 1 µM), the cell count in the assay with MZ2-MEL is 94.1%; in the assay with MeWo, 53.2%; in the assay on RPMI7951, 119%; in the assay on RVH-421, 74.4%; with SkMel28, 68.7%; in the assay on SkMel2, 69.3%. In addition, the cell count in the assay with SkMel30 came to 49.4%; in the assay on SkMel5 it was 84.2%; in the assay on UACC257, 72.8%; in the assay with UACC62, 98.6%.
`CC[C@]1(O)C[C@H]2CN(CCc3c([nH]c4ccccc34)[C@@](C(=O)OC)(c3cc4c(cc3OC)N(C=O)[C@H]3[C@@](O)(C(=O)OC)[C@H](OC(C)=O)[C@]5(CC)C=CCN6CC[C@]43[C@@H]65)C2)C1` [vincristine] + CC1(C)NC(=O)N(c2ccc([N+](=O)[O-])c(C(F)(F)F)c2)C1=O [nilutamide] (first compound 0.0001 µM, partner dose 1 µM): the cell count was 98.1% in the assay on MZ2-MEL; 94.5% in the assay with MeWo; 60.9% in the assay on RPMI7951; 95.2% with RVH-421; 92.1% with SkMel28; 92.7% with SkMel2. In addition, the cell count came out at 81.4% with SkMel30, 95.8% in the assay with SkMel5, 47% with UACC257 and 62.9% in the assay with UACC62.
For the compound `N#CC[C@H](C1CCCC1)n1cc(-c2ncnc3[nH]ccc23)cn1` [ruxolitinib] + O=C1NC(=O)/C(=C/c2ccc(-c3ccc(F)cc3O)o2)S1 [AS252424] (first compound 1 µM, partner dose 1 µM), the cell count with MZ2-MEL was 99.7%; in the assay on MeWo it was 93.6%; with RPMI7951 it was 94.7%; in the assay with RVH-421 it was 88%; in the assay on SkMel28, 106%; in the assay on SkMel2, 93.1%. The cell count turned out to be 125% with SkMel30, 89.9% with SkMel5, 88.1% in the assay with UACC257 and 112% with UACC62.
In the case of `CC[C@]1(O)C[C@H]2CN(CCc3c([nH]c4ccccc34)[C@@](C(=O)OC)(c3cc4c(cc3OC)N(C=O)[C@H]3[C@@](O)(C(=O)OC)[C@H](OC(C)=O)[C@]5(CC)C=CCN6CC[C@]43[C@@H]65)C2)C1` [vincristine] + COc1cc2c(Oc3ccc4[nH]c(C)cc4c3F)ncnc2cc1OCCCN1CCCC1 [cediranib] (first compound 0.0001 µM, partner dose 0.4 µM), the cell count with MZ2-MEL worked out at 99.5%; in the assay on MeWo, 101%; in the assay on RPMI7951, 85.5%; in the assay on RVH-421, 99%; in the assay with SkMel28, 83.4%; in the assay on SkMel2, 99.4%. Moreover, the cell count in the assay on SkMel30 is 89.6%; in the assay with SkMel5 it was 93.5%; in the assay on UACC257, 66%; with UACC62, 71.3%.
On to `CC[C@]1(O)C[C@H]2CN(CCc3c([nH]c4ccccc34)[C@@](C(=O)OC)(c3cc4c(cc3OC)N(C=O)[C@H]3[C@@](O)(C(=O)OC)[C@H](OC(C)=O)[C@]5(CC)C=CCN6CC[C@]43[C@@H]65)C2)C1` [vincristine] + CCCCCCCCCCCC1=C(O)C(=O)C=C(O)C1=O [Embelin] (first compound 0.0001 µM, partner dose 1.2 µM), for which the cell count was found to be 75.5% in the assay on MZ2-MEL; 91.9% with MeWo; 53.3% in the assay on RPMI7951; 88.1% in the assay with RVH-421; 68.2% in the assay on SkMel28; 73.6% in the assay on SkMel2. Further, the cell count worked out at 68.6% with SkMel30, 76.9% in the assay on SkMel5, 51.2% in the assay on UACC257 and 40.4% in the assay with UACC62.
In the case of `CC[C@]1(O)C[C@H]2CN(CCc3c([nH]c4ccccc34)[C@@](C(=O)OC)(c3cc4c(cc3OC)N(C=O)[C@H]3[C@@](O)(C(=O)OC)[C@H](OC(C)=O)[C@]5(CC)C=CCN6CC[C@]43[C@@H]65)C2)C1` [vincristine] + COc1cc(Nc2ncc(F)c(Nc3ccc4c(n3)NC(=O)C(C)(C)O4)n2)cc(OC)c1OC [Tamatinib] (first compound 0.0001 µM, partner dose 0.4 µM), the cell count came out at 78% in the assay with MZ2-MEL; 72.9% in the assay with MeWo; 71.6% with RPMI7951; 90.7% in the assay on RVH-421; 67.8% with SkMel28; 87.1% in the assay with SkMel2. The cell count was 62.1% in the assay with SkMel30, 87% in the assay with SkMel5, 34.6% in the assay on UACC257 and 58.1% with UACC62.

Values taken from the supplement of paper PMC4604168 (melanoma cell lines).
